Experimental data: article PMC12820563
The other results are listed elsewhere or left out. The list includes weakly bound sequences.

These sequences were tested against T1, MBP-FoxP3dN (UniProt Q99JB6) (assay: PD-seq (MBP pull-down with sequencing)). Conditions: 20 mM Tris-HCl pH 7.5, 100 mM NaCl, 1.5 mM MgCl2, 0.4 uM protein, 0.1 uM dsDNA library, 30 min, room temperature, amylose pull-down; high values mean tight binding; double strand, one strand shown.
T1 sequence: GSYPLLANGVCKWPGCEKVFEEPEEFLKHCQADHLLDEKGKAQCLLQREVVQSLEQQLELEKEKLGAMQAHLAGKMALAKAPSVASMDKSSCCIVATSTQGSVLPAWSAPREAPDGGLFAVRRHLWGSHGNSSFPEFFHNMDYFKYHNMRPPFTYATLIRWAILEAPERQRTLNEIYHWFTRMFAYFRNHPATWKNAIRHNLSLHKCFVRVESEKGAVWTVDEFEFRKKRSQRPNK

| Sequence | binding signal (RPM ratio (pull-down/input)) |
| --- | --- |
| GATGATTGTTCTCCCAGCTGATGAATTCGATATGTCGAGTAAACAAATTTTCCTAATCTTTCTGTTCAAGCGCCATCTAC | 1.91 |
| GATGATTGTTCTCCCAGCTGATGAATTCGTACTGTCGAGTAAACAAATTTTCCTAATCTTTCTGTTCAAGCGCCATCTAC | 0.667 |
| GATGATTGTTCTCCCAGCTGATGAATTCCTCTTGTCGAGTAAACAAATTTTCCTAATCTTTCTGTTCAAGCGCCATCTAC | 0.295 |
| GATGATTGTTCTCCCAGCTGATGAATTTGGCACCTCGAGTAAACAAATTTTCCTAATCTTTCTGTTCAAGCGCCATCTAC | 1.26 |
| GATGATTGTTCTCCCAGCTGATGAATTTCTACTATCGAGTAAACAAATTTTCCTAATCTTTCTGTTCAAGCGCCATCTAC | 0.365 |
| GATGATTGTTCTCCCAGCTGATGAATTGGTGAACTCGAGTAAACAAATTTTCCTAATCTTTCTGTTCAAGCGCCATCTAC | 0.36 |
| GATGATTGTTCTCCCAGCTGATGAATTTCGAGGCTCGAGTAAACAAATTTTCCTAATCTTTCTGTTCAAGCGCCATCTAC | 0.411 |
| GATGATTGTTCTCCCAGCTGATGAATTGACCAGGTCGAGTAAACAAATTTTCCTAATCTTTCTGTTCAAGCGCCATCTAC | 0.183 |
| GATGATTGTTCTCCCAGCTGATGAATTATGATGATCGAGTAAACAAATTTTCCTAATCTTTCTGTTCAAGCGCCATCTAC | 1.63 |
| GATGATTGTTCTCCCAGCTGATGAATTCGTCGCTTCGAGTAAACAAATTTTCCTAATCTTTCTGTTCAAGCGCCATCTAC | 0.728 |
| GATGATTGTTCTCCCAGCTGATGAATTAGCGAGGTCGAGTAAACAAATTTTCCTAATCTTTCTGTTCAAGCGCCATCTAC | 0.321 |
| GATGATTGTTCTCCCAGCTGATGAATTAAACCGTTCGAGTAAACAAATTTTCCTAATCTTTCTGTTCAAGCGCCATCTAC | 0.376 |
| GATGATTGTTCTCCCAGCTGATGAATTCGCGGCGTCGAGTAAACAAATTTTCCTAATCTTTCTGTTCAAGCGCCATCTAC | 0.548 |
| GATGATTGTTCTCCCAGCTGATGAATTGCTAAAATCGAGTAAACAAATTTTCCTAATCTTTCTGTTCAAGCGCCATCTAC | 0.394 |
| GATGATTGTTCTCCCAGCTGATGAATTTACACGCTCGAGTAAACAAATTTTCCTAATCTTTCTGTTCAAGCGCCATCTAC | 0.564 |
| GATGATTGTTCTCCCAGCTGATGAATTAGTCTACTCGAGTAAACAAATTTTCCTAATCTTTCTGTTCAAGCGCCATCTAC | 1.49 |
| GATGATTGTTCTCCCAGCTGATGAATTTCCAATATCGAGTAAACAAATTTTCCTAATCTTTCTGTTCAAGCGCCATCTAC | 0.339 |
| GATGATTGTTCTCCCAGCTGATGAATTGAAACCATCGAGTAAACAAATTTTCCTAATCTTTCTGTTCAAGCGCCATCTAC | 0.409 |
| GATGATTGTTCTCCCAGCTGATGAATTGTGTTAGTCGAGTAAACAAATTTTCCTAATCTTTCTGTTCAAGCGCCATCTAC | 5.98 |
| GATGATTGTTCTCCCAGCTGATGAATTAGAACAATCGAGTAAACAAATTTTCCTAATCTTTCTGTTCAAGCGCCATCTAC | 0.387 |
| GATGATTGTTCTCCCAGCTGATGAATTTCACTACTCGAGTAAACAAATTTTCCTAATCTTTCTGTTCAAGCGCCATCTAC | 0.353 |

| Sequence | binding signal (RPM ratio (pull-down/input)) |
| --- | --- |
| GATGATTGTTCTCCCAGCTGATGAATTTCCAACATCGAGTAAACAAATTTTCCTAATCTTTCTGTTCAAGCGCCATCTAC | 0.393 |
| GATGATTGTTCTCCCAGCTGATGAATTGCGTGTGTCGAGTAAACAAATTTTCCTAATCTTTCTGTTCAAGCGCCATCTAC | 2.22 |
| GATGATTGTTCTCCCAGCTGATGAATTAAAGATCTCGAGTAAACAAATTTTCCTAATCTTTCTGTTCAAGCGCCATCTAC | 0.247 |
| GATGATTGTTCTCCCAGCTGATGAATTTCAAGACTCGAGTAAACAAATTTTCCTAATCTTTCTGTTCAAGCGCCATCTAC | 0.224 |
| GATGATTGTTCTCCCAGCTGATGAATTTTTTAGCTCGAGTAAACAAATTTTCCTAATCTTTCTGTTCAAGCGCCATCTAC | 0.178 |
| GATGATTGTTCTCCCAGCTGATGAATTAGGGCGATCGAGTAAACAAATTTTCCTAATCTTTCTGTTCAAGCGCCATCTAC | 0.425 |
| GATGATTGTTCTCCCAGCTGATGAATTGAGGGTGTCGAGTAAACAAATTTTCCTAATCTTTCTGTTCAAGCGCCATCTAC | 0.748 |
| GATGATTGTTCTCCCAGCTGATGAATTTAAAATTTCGAGTAAACAAATTTTCCTAATCTTTCTGTTCAAGCGCCATCTAC | 0.21 |
| GATGATTGTTCTCCCAGCTGATGAATTTATACATTCGAGTAAACAAATTTTCCTAATCTTTCTGTTCAAGCGCCATCTAC | 1.09 |
| GATGATTGTTCTCCCAGCTGATGAATTAACAAGGTCGAGTAAACAAATTTTCCTAATCTTTCTGTTCAAGCGCCATCTAC | 0.261 |
| GATGATTGTTCTCCCAGCTGATGAATTGCCCGTGTCGAGTAAACAAATTTTCCTAATCTTTCTGTTCAAGCGCCATCTAC | 0.563 |
| GATGATTGTTCTCCCAGCTGATGAATTGCGATTCTCGAGTAAACAAATTTTCCTAATCTTTCTGTTCAAGCGCCATCTAC | 1.41 |
| GATGATTGTTCTCCCAGCTGATGAATTCTGGTGCTCGAGTAAACAAATTTTCCTAATCTTTCTGTTCAAGCGCCATCTAC | 0.534 |
| GATGATTGTTCTCCCAGCTGATGAATTTATACTTTCGAGTAAACAAATTTTCCTAATCTTTCTGTTCAAGCGCCATCTAC | 0.774 |
| GATGATTGTTCTCCCAGCTGATGAATTAAGGCCCTCGAGTAAACAAATTTTCCTAATCTTTCTGTTCAAGCGCCATCTAC | 0.605 |
| GATGATTGTTCTCCCAGCTGATGAATTGATTCTTTCGAGTAAACAAATTTTCCTAATCTTTCTGTTCAAGCGCCATCTAC | 0.421 |
| GATGATTGTTCTCCCAGCTGATGAATTCATTCAGTCGAGTAAACAAATTTTCCTAATCTTTCTGTTCAAGCGCCATCTAC | 0.257 |
| GATGATTGTTCTCCCAGCTGATGAATTGATGGTATCGAGTAAACAAATTTTCCTAATCTTTCTGTTCAAGCGCCATCTAC | 1.03 |
| GATGATTGTTCTCCCAGCTGATGAATTTTGCGCCTCGAGTAAACAAATTTTCCTAATCTTTCTGTTCAAGCGCCATCTAC | 2.67 |
| GATGATTGTTCTCCCAGCTGATGAATTAGTACGGTCGAGTAAACAAATTTTCCTAATCTTTCTGTTCAAGCGCCATCTAC | 0.434 |
| GATGATTGTTCTCCCAGCTGATGAATTTCGGGCTTCGAGTAAACAAATTTTCCTAATCTTTCTGTTCAAGCGCCATCTAC | 0.333 |

| Sequence | binding signal (RPM ratio (pull-down/input)) |
| --- | --- |
| GATGATTGTTCTCCCAGCTGATGAATTTATACCGTCGAGTAAACAAATTTTCCTAATCTTTCTGTTCAAGCGCCATCTAC | 0.687 |
| GATGATTGTTCTCCCAGCTGATGAATTGGAAAGGTCGAGTAAACAAATTTTCCTAATCTTTCTGTTCAAGCGCCATCTAC | 0.154 |
| GATGATTGTTCTCCCAGCTGATGAATTCGGGTGATCGAGTAAACAAATTTTCCTAATCTTTCTGTTCAAGCGCCATCTAC | 0.446 |
| GATGATTGTTCTCCCAGCTGATGAATTAGGAAGCTCGAGTAAACAAATTTTCCTAATCTTTCTGTTCAAGCGCCATCTAC | 0.237 |
| GATGATTGTTCTCCCAGCTGATGAATTAGACACTTCGAGTAAACAAATTTTCCTAATCTTTCTGTTCAAGCGCCATCTAC | 0.562 |
| GATGATTGTTCTCCCAGCTGATGAATTCTGCATTTCGAGTAAACAAATTTTCCTAATCTTTCTGTTCAAGCGCCATCTAC | 6.51 |
| GATGATTGTTCTCCCAGCTGATGAATTCGAGCAGTCGAGTAAACAAATTTTCCTAATCTTTCTGTTCAAGCGCCATCTAC | 0.326 |
| GATGATTGTTCTCCCAGCTGATGAATTTCGCTTGTCGAGTAAACAAATTTTCCTAATCTTTCTGTTCAAGCGCCATCTAC | 3.29 |
| GATGATTGTTCTCCCAGCTGATGAATTTCGCACATCGAGTAAACAAATTTTCCTAATCTTTCTGTTCAAGCGCCATCTAC | 1.14 |
| GATGATTGTTCTCCCAGCTGATGAATTTAGGCCATCGAGTAAACAAATTTTCCTAATCTTTCTGTTCAAGCGCCATCTAC | 1.45 |
| GATGATTGTTCTCCCAGCTGATGAATTGTCCTTCTCGAGTAAACAAATTTTCCTAATCTTTCTGTTCAAGCGCCATCTAC | 0.388 |
| GATGATTGTTCTCCCAGCTGATGAATTACAACAGTCGAGTAAACAAATTTTCCTAATCTTTCTGTTCAAGCGCCATCTAC | 1.1 |
| GATGATTGTTCTCCCAGCTGATGAATTAAAAACATCGAGTAAACAAATTTTCCTAATCTTTCTGTTCAAGCGCCATCTAC | 1.43 |
| GATGATTGTTCTCCCAGCTGATGAATTACTGTAATCGAGTAAACAAATTTTCCTAATCTTTCTGTTCAAGCGCCATCTAC | 0.742 |
| GATGATTGTTCTCCCAGCTGATGAATTCCCTAATTCGAGTAAACAAATTTTCCTAATCTTTCTGTTCAAGCGCCATCTAC | 0.276 |
| GATGATTGTTCTCCCAGCTGATGAATTGCTAATCTCGAGTAAACAAATTTTCCTAATCTTTCTGTTCAAGCGCCATCTAC | 0.638 |
| GATGATTGTTCTCCCAGCTGATGAATTCCACATATCGAGTAAACAAATTTTCCTAATCTTTCTGTTCAAGCGCCATCTAC | 0.449 |
| GATGATTGTTCTCCCAGCTGATGAATTGCCTAACTCGAGTAAACAAATTTTCCTAATCTTTCTGTTCAAGCGCCATCTAC | 0.514 |
| GATGATTGTTCTCCCAGCTGATGAATTCCGCTCTTCGAGTAAACAAATTTTCCTAATCTTTCTGTTCAAGCGCCATCTAC | 0.674 |
| GATGATTGTTCTCCCAGCTGATGAATTTCGATGCTCGAGTAAACAAATTTTCCTAATCTTTCTGTTCAAGCGCCATCTAC | 0.898 |
| GATGATTGTTCTCCCAGCTGATGAATTATGCGTATCGAGTAAACAAATTTTCCTAATCTTTCTGTTCAAGCGCCATCTAC | 2.74 |
